Assay results: the RNAGym collection of RNA variant scans (doi:10.1073/pnas.2313332121)
Variants at the floor of the assay are shown more often than the library holds them.

B1: TPR 5TU (parent)
chain: GGAUCUUCUCGAUCUAACAAAAAAGACAAAUCUGCCACAAAGCUUGAGAGCAUCUUCGGAUGCAGAGGCGGCAGCCUUCGGUGGCGCGAUAGCGCCAACGUUCUCAACUAUGACACGCAAAACGCGUGCUCCGUUGAAUGGAGUUUAUCAUG

Variants of: B1
Assay: polymerase ribozyme fitness, log enrichment relative to wild type (log ratio); higher = more active; in vitro selection for triplet polymerase activity
Procedure, shortened: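 Only genotypes with ≥10 input reads and ≥1 read per output were kept after Illumina sequencing of input and output libraries. These libraries were PCR-built, transcribed mutants of each subunit of a heterodimeric triplet polymerase ribozyme, each put through one triplicate in vitro selection round with frozen incubation at −7 °C, gel excision of extended constructs, streptavidin-bead capture and RT-PCR. Fitness is a logarithmic ratio of genotype enrichment to wild-type enrichment, from inverse-variance-weighted replicate averages, with the logarithm in base 2.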

Variant | polymerase ribozyme fitness (log ratio)
G92A C103U G126U C149A A150U | ≤ -4.2
G92A C105A | -3.36
G92A C116A G141A | ≤ -4.2
G92A C116U C125U U134C | ≤ -4.2
G92A C123A G126U U148A | ≤ -4.2
G92A C123A U134G | ≤ -4.2
G92A G94U C96G U102C | ≤ -4.2
G92A G100C | -4.07
G92A G100U A138C | ≤ -4.2
G92A G124C | -3.03
G92A G133A | ≤ -4.2
G92A G133U G143C | ≤ -4.2
G92A G133U U144G | ≤ -4.2
G92A G141C A147U | -3.44
G92A G143U A150C | ≤ -4.2
G92A U104A U109G U144A | ≤ -4.2
G92A U104G A110G | -3.8
G92A U127G | -3.27
G92A U134A | ≤ -4.2
G92A U134G U144A | ≤ -4.2
G92A U148A | ≤ -4.2

Variant | polymerase ribozyme fitness (log ratio)
G92C A98G A115U | -2.44
G92C A98G U101G A110G A120G G133C U134G G141C A147G | ≤ -4.2
G92C A107G A120C U127C G152A | ≤ -4.2
G92C A113C C132A | ≤ -4.2
G92C C95A | -2.12
G92C C99A A138C | ≤ -4.2
G92C G94A | -2.95
G92C G124U C129U A138G U139G | ≤ -4.2
G92C G141C | -0.623
G92C U101G | -0.874
G92C U101G C131A | -3.96
G92C U104C | -1.35
G92C U104G C116U A121U C129U G136U | ≤ -4.2
G92C U134G | -1.68
G92C U135C | -2.88
G92C U148A | ≤ -4.2
G92C U148C | -2.56
G92U A107U | -3.2
G92U A110C G140U | ≤ -4.2
G92U A113C | -2.78
G92U A121G G143C U145G | -3.44

Variant | polymerase ribozyme fitness (log ratio)
G92U A138C | -3.95
G92U C93G C99U A113G | ≤ -4.2
G92U C93U | -2.13
G92U C96A U127C U145C A147C | ≤ -4.2
G92U C99U U148A | ≤ -4.2
G92U C105A C114G A142U | ≤ -4.2
G92U C105U A107U A110C A138C | ≤ -4.2
G92U C108G A120U C129A C149G | ≤ -4.2
G92U C125U | -1.4
G92U G133C | -2.1
G92U G136C | -3.44
G92U U101A A119U G143U | -3.62
G92U U101G C131U | 0.547
G92U U104G | -0.858
G92U U104G U109C | ≤ -4.2
C93A A97G | -3.37
C93A A97U | -3.38
C93A A98U C125G C131U | -2.4
C93A A106C | -2.63
C93A A106C U127G U144A | ≤ -4.2
C93A A107G G152A | ≤ -4.2

Variant | polymerase ribozyme fitness (log ratio)
C93A A107U G126C A150G | ≤ -4.2
C93A A113U | -4.07
C93A A142G | -2.77
C93A A150G | -3.51
C93A C95A U104A G141C | ≤ -4.2
C93A C95G | ≤ -4.2
C93A C95G C99G G124C | ≤ -4.2
C93A C99G | -3.88
C93A C103A C108A A113G | ≤ -4.2
C93A C103G | -3.88
C93A C103G A120C G136C | ≤ -4.2
C93A C105A | ≤ -4.2
C93A C108G U134C G141C U151A | ≤ -4.2
C93A C118U | -3.29
C93A C132A | ≤ -4.2
C93A C132G A138C G140U G141C | ≤ -4.2
C93A G124A | -2.59
C93A G136A | -1.14
C93A U101G | -3.29
C93A U104C | -3.27
C93A U104C A138G | ≤ -4.2
